“And” between values parts separate entries of the source, which are not always exact repeats. Equal values may be shown once. Inconclusive means that the source gave no clear call. Such entries were picked first, then a sample of the others. For part of these data: A potency beside an inconclusive call is a rough fit, not a confirmed value. The source made the active and inactive calls. The call rests on the fitted dose curve; in most records, active means well fitted curve in the direction sought with a large enough effect in the repeat runs; inconclusive means weak or mixed curves; inactive means no such curve, though single readings can be large; an effect the other way counts as inactive or inconclusive.
Assays:
[1] = qHTS RealTime-Glo MT Cell Viability Assay in HEK293 cells - 16 hour (AID 1224872); further: nearly all actives have a fitted effect of over 50% in size; further: potency means the concentration at half of the fitted maximal effect; on activity change, negative = cytotoxicity: top concentration of the series differs between compounds; on the % scale 0 is the no-effect control and ±100 the full control effect
Outline: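 Homogeneous bioluminescent viability format in HEK293 cells (600 cells/well). Following 5 h at 37 C/5% CO2, 23 nL compound was pintooled; the signal was measured repeatedly during 40 h incubation.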

[2] = A CellTox Green Cytotoxicity Assay to monitor cytotoxicity in HEK293 cells - 40 hour (AID 1224871); further: nearly all actives have a fitted effect of over 45% in size; further: potency means the concentration at half of the fitted maximal effect
Outline: (§1)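 Dead-cell fluorescence measured kinetically: asymmetric cyanine dye, HEK293, 600 cells/well, 5 h settle, 23 nL cpd/DMSO, 37 C, reads 0–40 h every 8 h.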

[3] = A CellTox Green Cytotoxicity Assay to monitor cytotoxicity in HepG2 cells - 24 hour (AID 1224878); further: nearly all actives have a fitted effect of over 45% in size; further: potency means the concentration at half of the fitted maximal effect; on Cytotoxicity: on the % scale 0 is the no-effect control and ±100 the full control effect
Outline: (§2)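 First, HepG2 cells (600/well) mixed with reagent were plated; second, after 5 h at 37 C they received compounds via pintool; third, fluorescence was measured at 0 h through 40 h at 8 h intervals.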

[4] = A CellTox Green Cytotoxicity Assay to monitor cytotoxicity in HepG2 cells - 40 hour (AID 1224879); further: nearly all actives have a fitted effect of over 40% in size; further: potency means the concentration at half of the fitted maximal effect
Outline: as §2

[5] = A CellTox Green Cytotoxicity Assay to monitor cytotoxicity in HEK293 cells - 24 hour (AID 1224875); further: potency means the concentration at half of the fitted maximal effect; nearly all actives have a fitted effect of over 45% in size
Outline: as §1

[6] = qHTS RealTime-Glo MT Cell Viability Assay in HepG2 cells - 32 hour (AID 1224877); further: on the % scale 0 is the no-effect control and ±100 the full control effect; nearly all actives have a fitted effect of over 55% in size
Outline: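 Cell number in HepG2 cultures estimated from NanoLuc luminescence generated by metabolic reduction of a prosubstrate by living cells. The homogeneous, nonlytic format allowed repeated reads at 0, 8, 16, 24, 32 and 40 h of compound exposure.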

[7] = A CellTox Green Cytotoxicity Assay to monitor cytotoxicity in HepG2 cells - 16 hour (AID 1224876); further: nearly all actives have a fitted effect of over 45% in size; further: potency means the concentration at half of the fitted maximal effect
Outline: as §2

[8] = qHTS RealTime-Glo MT Cell Viability Assay in HEK293 cells - 40 hour (AID 1224874); settings: RealTime-Glo luminescence; max response: stronger effect = lower value; further: potency means the concentration at half of the fitted maximal effect; nearly all actives have a fitted effect of over 50% in size
Outline: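 600 HEK293 cells per well, dispensed already mixed with RealTime-Glo MT reagents. Compound dosing came 5 h later. The same wells were read for luminescence at 0, 8, 16, 24, 32 and 40 h of exposure at 37 C.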

[9] = qHTS RealTime-Glo MT Cell Viability Assay in HepG2 cells - 8 hour (AID 1224873); further: on the % scale 0 is the no-effect control and ±100 the full control effect; nearly all actives have a fitted effect of over 55% in size
Outline: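 Real-time viability: cells seeded at 600 per well together with NanoLuc and cell-permeant prosubstrate, compounds added after 5 h incubation. Luminescence tracked at 0, 8, 16, 24, 32 and 40 h of exposure.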
Tags describe the fitted curve by direction and shape.

In the case of `SCCOCCOCCS`, the Potency [1] is reported as inconclusive: 43.6 µM [cytotoxic, partial curve, poor fit].
For `Clc1cccc(-c2cc(Cl)cc(Cl)c2)c1`, the Potency [2] was active: 37.5 µM, the Potency [3] was inconclusive: 53 µM [activator, partial curve, poor fit] and the Potency [4] was inconclusive: 53 µM [activator, single point].
For `O=c1cc(CO)occ1O`, the Potency [1] was “inactive”.
In the case of `CN1CCN(c2c(F)cc3c(=O)c(C(=O)O)cn(CCF)c3c2F)CC1`, the Potency [2] is reported as inconclusive: 5.35 µM [activator, single point] and the Potency [3] is reported as “inactive”.
For `CC1=CC(C)(C)Nc2ccccc21`, the Potency [2] was inconclusive: 46.5 µM [activator, single point] and inconclusive: 19 µM [activator, partial curve, poor fit], the Potency [5] was inconclusive: 46.5 µM [activator, partial curve, poor fit] and the Potency [6] was “inactive”.
In the case of `CC(C)c1ccc2c(C(C)C)cc(C(C)C)c(S(=O)(=O)O)c2c1`, the Potency [2] is reported as inconclusive: 32 µM [activator, partial curve, poor fit] and the Potency [5] is reported as inconclusive: 35.9 µM [activator, partial curve, poor fit].
For `Fc1ccccc1-c1ccccc1`, the Potency [2] was inconclusive: 39.7 µM [activator, partial curve, poor fit], the Potency [5] was inconclusive: 44.6 µM [activator, partial curve, poor fit] and the Potency [7] was “inactive”. For the same compound, the Potency [4] was inconclusive: 56.1 µM [activator, single point].
For `CCN(CC)C(=O)c1ccc(O)c(OC)c1`, the Potency [1] was “inactive”.
In the case of `C=CC[N+](C)(C)CC=C`, the Potency [2] is reported as “inactive”, the Potency [6] is reported as “inactive” and the Potency [3] is reported as inconclusive: 61.7 µM [activator, single point]. The Potency [4] was inconclusive: 61.7 µM [activator, partial curve, poor fit].
For `CCCCCCCCCCCC(=O)N(C)CC(=O)O`, the Potency [2] was inconclusive: 59.7 µM [activator, single point], the Potency [3] was “inactive” and the Potency [4] was inconclusive: 59.7 µM [activator, partial curve, poor fit].
In the case of `C=CCOC(=O)CCCCCC`, the Potency [1] is reported as “inactive”.
With `CC1CCC(C(C)(C)O)CC1` (stereo not given) the Potency [1] was “inactive”.
For `CC(C)(O)CCC(C)(C)O`, the Potency [2] was “inactive” and the Potency [3] was “inactive”.
For `O=C(O)c1cc(O)c(O)c(O)c1`, the Potency [1] was inconclusive: 49.4 µM [cytotoxic, partial curve].
For `CC(C(=O)O)c1cccc(Oc2ccccc2)c1` (stereo not given), the Potency [1] was “inactive”.
For `CCCCCCCCCCc1ccccc1`, the Potency [1] was “inactive”.
With `CCCCCCCCCCCCCC(=O)O` the Potency [2] was inconclusive: 21.8 µM [activator, single point] and inactive, the Potency [5] was inconclusive: 21.8 µM [activator, single point] and the Potency [4] was “inactive”.
In the case of `CCC(C)(C)C1CCC(OC)CC1` (stereo not given), the Potency [1] is reported as inconclusive: 27.5 µM [rising, partial curve].
For `COc1cc2nc(N3CCN(C(=O)C4CCCO4)CC3)nc(N)c2cc1OC` (stereo not given), the Potency [1] was “inactive”.
For `CCCCCCCCCCOS(=O)(=O)O`, the Potency [1] was “inactive”.
For `CC(C)COC(=O)/C=C/c1ccccc1`, the Potency [2] was inconclusive: 17.4 µM [activator, partial curve], the Potency [3] was inconclusive: 61.7 µM [activator, single point] and the Potency [4] was inconclusive: 61.7 µM [activator, single point].
For `Clc1ccccc1CN1CCc2sccc2C1`, the Potency [1] was inconclusive: 23.9 µM [cytotoxic, partial curve, poor fit].
With `CC(C)(O)c1ccc(C(C)(C)O)cc1` the Potency [1] was “inactive”.
With `CCCCCCCCS(=O)(=O)Cl` the Potency [1] was “inactive”.
With `Cc1ccnc(N)c1` the Potency [1] was “inactive”.
For `CSc1ccc(Cl)cc1`, the Potency [2] was inconclusive: 54.5 µM [activator, single point], the Potency [5] was inconclusive: 48.6 µM [activator, partial curve, poor fit] and the Potency [7] was inconclusive: 11 µM [activator, partial curve, poor fit]. For the same compound, the Potency [3] was inconclusive: 21.9 µM [activator, partial curve, poor fit] and the Potency [4] was inconclusive: 21.9 µM [activator, single point].
In the case of `Oc1ccc(C(O)CNCCCCCCNCC(O)c2ccc(O)c(O)c2)cc1O` (stereo not given), the Potency [1] is reported as “inactive”.
With `CCN(CC)c1ccc(N=Nc2ccccc2)cc1` the Potency [1] was active: 49 µM.
With `CC(=O)c1cccc([N+](=O)[O-])c1` the Potency [1] was “inactive”.
For `O=C1[C@H](CC[C@H](O)c2ccc(F)cc2)[C@@H](c2ccc(O)cc2)N1c1ccc(F)cc1`, the Potency [1] was inconclusive: 23.9 µM [cytotoxic, single point].
For `c1ccc(-c2ccccc2-c2ccccc2)cc1`, the Potency [1] was “inactive”.
In the case of `Cc1ccc(N(C)C)cc1`, the Potency [1] is reported as “inactive”.
In the case of `OCCc1ccncc1`, the Potency [1] is reported as “inactive”.
With `CCCCNc1ccc(C(=O)OCCN(CC)CC)cc1` the Potency [1] was inconclusive: 19 µM [cytotoxic, partial curve, poor fit].
In the case of `c1ccc(-c2nc3ccccc3[nH]2)cc1`, the Potency [1] is reported as active: 21.9 µM.
In the case of `CC(CC(C#N)(c1ccccc1)C(C)C)N(C)C` (stereo not given), the Potency [1] is reported as “inactive”.
With `Cc1ncc([N+](=O)[O-])n1CC(C)O` (stereo not given) the Potency [1] was “inactive”.
For `COc1cc2ncnc(Nc3cccc(Cl)c3)c2cc1OC`, the activity change, negative = cytotoxicity [1] was inactive: -3.69% [at 15.8 µM].
In the case of `ClC(Cl)(Br)Br`, the Potency [1] is reported as “inactive”.
For `CN1[C@@H]2CC[C@@H]1CC(OC(=O)C(CO)c1ccccc1)C2` (stereo not given in full), the Potency [1] was “inactive”.
With `O=C(NC1CCN(CCc2c[nH]c3ccccc23)CC1)c1ccccc1` the Potency [1] was active: 9.52 µM.
With `CN1C(=O)c2ccc([N+](=O)[O-])cc2C1=O` the Potency [1] was “inactive”.
For `COc1cc2c(cc1OC)C(=O)CC2`, the Potency [1] was “inactive”.
In the case of `OC[C@@H](O)C(O)[C@@H](O)CO` (stereo not given in full), the Potency [1] is reported as “inactive”.
In the case of `CCOC(=O)c1ccc(O)cc1`, the Potency [1] is reported as inconclusive: 54.9 µM [cytotoxic, single point].
In the case of `O=C(Cl)c1ccc(F)c(Cl)c1`, the Potency [1] is reported as inconclusive: 49 µM [rising, partial curve].
With `COc1cc([N+](=O)[O-])ccc1N` the Potency [1] was “inactive”.
For `O=C(O)c1c2ccccc2cc2ccccc12`, the Potency [1] was inconclusive: 48.8 µM [cytotoxic, partial curve, poor fit].
In the case of `CC(=O)NCCCS(=O)(=O)O`, the Potency [1] is reported as “inactive”.
With `Cc1ccc(C(=O)C(C)CN2CCCCC2)cc1` (stereo not given) the Potency [1] was “inactive”.
For `Cc1nn(C)c(Oc2ccccc2)c1/C=N/OCc1ccc(C(=O)OC(C)(C)C)cc1`, the Potency [1] was inconclusive: 0.0062 µM [cytotoxic, full curve].
For `CC(=O)CC(N)=O`, the Potency [1] was “inactive”.
For `COc1c2ccoc2cc2oc(=O)ccc12`, the Potency [1] was inconclusive: 35.5 µM [cytotoxic, partial curve, poor fit].
With `O=C(O)Cc1cccc(-c2cc(CCCCCCc3ccc(O[C@H]4O[C@H](CO)[C@@H](O)[C@H](O)[C@@H]4O)c(-c4cccc(CC(=O)O)c4)c3)ccc2O[C@H]2O[C@H](CO)[C@@H](O)[C@H](O)[C@@H]2O)c1` the activity change, negative = cytotoxicity [1] was inactive: 3.33% [at 0.29 µM].
For `O=C(c1ccccc1)C(O)c1ccccc1` (stereo not given), the Potency [1] was inconclusive: 54.5 µM [rising, single point] and inconclusive: 49 µM [rising, single point].
In the case of `CCOC(CN1CCN(CC(C)C(=O)c2ccccc2)CC1)c1ccccc1` (stereo not given), the Potency [1] is reported as inconclusive: 13.1 µM [cytotoxic, single point].
With `Nc1ccc(-c2ccc(F)cc2)cc1` the Potency [1] was inconclusive: 30.9 µM [cytotoxic, partial curve].
For `NS(=O)(=O)c1cc2c(cc1Cl)CN(C1CCCCC1)C2=O`, the Potency [1] was active: 10.7 µM.
For `COc1cc2c(Nc3ccc(Br)cc3F)ncnc2cc1OCC1CCN(C)CC1`, the Potency [1] was “inactive”.
In the case of `COc1cc(Cl)ccc1Oc1ccc(Cl)cc1Cl`, the Potency [1] is reported as inconclusive: 47.6 µM [cytotoxic, partial curve, poor fit].
In the case of `CC1(O)CSC(C)(O)CS1` (stereo not given), the Potency [1] is reported as inconclusive: 54.9 µM [rising, single point].
In the case of `CCOc1nc(F)cc2nc(S(=O)(=O)Nc3c(Cl)cccc3C(=O)OC)nn12`, the Potency [1] is reported as “inactive”.
For `COC(=O)C(C)(C)C`, the Potency [1] was inconclusive: 49.7 µM [cytotoxic, partial curve, poor fit].
With `CC(C(=O)O)c1ccc(C(=O)c2ccccc2)s1` (stereo not given) the Potency [1] was “inactive”.
With `NNc1nncc2ccccc12` the Potency [1] was inconclusive: 54.9 µM [cytotoxic, single point] and the Potency [8] was inconclusive: 54.9 µM [cytotoxic, single point].
With `CC(C)(CO)C(O)C(=O)NCCCO` (stereo not given) the Potency [1] was “inactive”.
For `CCCC(C)C`, the Potency [1] was inconclusive: 49.5 µM [cytotoxic, single point] and the Potency [8] was inconclusive: 49.5 µM [cytotoxic, single point].
In the case of `COc1ccc(Nc2ccccc2)c(C)c1`, the Potency [1] is reported as inconclusive: 43.6 µM [cytotoxic, partial curve].
For `O=C1c2cccc(O)c2C(=O)c2c(O)cc(CO)cc21`, the Potency [1] was inconclusive: 27.5 µM [rising, partial curve].
For `CC(C)(C)C(=O)OCOP(=O)(COCCn1cnc2c(N)ncnc21)OCOC(=O)C(C)(C)C`, the Potency [1] was inconclusive: 1.69 µM [cytotoxic, full curve].
With `O=[N+]([O-])c1ccc(Oc2ccc([N+](=O)[O-])cc2)cc1` the Potency [1] was inconclusive: 28.2 µM [cytotoxic, partial curve] and the Potency [8] was inconclusive: 44.6 µM [cytotoxic, partial curve].
For `O=c1[nH]c(=O)c2cn[nH]c2[nH]1`, the Potency [1] was “inactive”.
With `CCOC(=O)[C@H](C)O` the Potency [1] was “inactive”, the Potency [9] was “inactive” and the Potency [3] was “inactive”.
For `CCOc1cc(OCC)c(C(C)=O)cc1OCC`, the Potency [1] was active: 19.2 µM and the Potency [8] was active: 19.2 µM.
For `CCCCC(CC)C(=O)OCCOCCOCCOCCOC(=O)C(CC)CCCC` (stereo not given), the Potency [1] was inconclusive: 12.3 µM [cytotoxic, full curve] and the Potency [8] was inconclusive: 19.5 µM [cytotoxic, partial curve].

Source: PubChem BioAssay (Tox21)
